# Laboratory results published in PubChem BioAssay AID759 (NMMLSC, 2007).
# In all, about 190,000 compounds went through this assay and about 270 (0.14%) were called active. The shares of active, inactive and inconclusive entries below differ from those in the screen.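 Rule for the calls: active = GTP binding activity at least 20% away from the 100% baseline, either lowered as inhibitor or raised as activator; inconclusive = flagged as likely green fluorescent, judged across all proteins in the well; inactive = the rest.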
# Biological target: GTPase HRas (Homo sapiens) (UniProt P01112)
# Experiment: HRas wt fluorescent GTP binding changes, either direction – biochemical, wildtype, bead-based flow cytometry, multiplex, primary screen (AID 759);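 note: 0% = unlabeled GTP competition control and 100% = no-compound control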
# Conditions: GST-Ras wt beads, Bodipy-FL-GTP binding, at 10 µM, actives lie on both sides
# UniProt P01112, sequence (P01112 whole entry, looked up): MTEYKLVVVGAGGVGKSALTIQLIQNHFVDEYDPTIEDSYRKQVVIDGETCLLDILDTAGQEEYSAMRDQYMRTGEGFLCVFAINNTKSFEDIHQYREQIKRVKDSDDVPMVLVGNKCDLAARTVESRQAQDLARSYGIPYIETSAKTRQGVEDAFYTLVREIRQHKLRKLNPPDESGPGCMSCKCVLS
row,SMILES,GTP binding activity
1,CC1C/C(=N/NC(=O)c2cccc(F)c2)c2ccc(O)cc2C1 (configuration not stated),inactive: 103%
2,Cc1cc(C)cc(-c2nnc(SCC(=O)c3ccc4c(c3)OCCO4)o2)c1,inconclusive: 90%
3,COc1ccc(/C=C2\CCCC3C2=NN(C(=O)c2scnc2C)C3c2ccc(OC)c(OC)c2)cc1OC (configuration not stated),active: 67%
4,CCCOc1ccc(N2CC(C(=O)Nc3ccccc3C(=O)NCc3ccco3)CC2=O)cc1 (configuration not stated),inconclusive: 93%
5,CCn1c(SCC(=O)Nc2nc3ccccc3s2)nnc1-c1ccc(Br)cc1,inconclusive: 106%
6,Cn1nc(C(F)(F)F)c(C(=O)Nc2ccc(F)cc2F)c1Sc1ccc(C(F)(F)F)cc1,inactive: 104%
7,Cc1ccc(NC(=O)C2CC(=O)N(c3ccc4c5c(cccc35)CC4)C2)cc1 (configuration not stated),inconclusive: 95%
8,COc1cccc2cc(/C(C)=N/NC(=O)c3ccco3)oc12,inconclusive: 93%
9,O=C(COC(=O)CCc1nc2ccccc2s1)NC(=O)NCc1ccco1,inactive: 97%
10,Nn1c(SCC(=O)Nc2ccc3c(c2)OCO3)nnc1-c1ccncc1,inconclusive: 92%
11,COc1cccc(CNC(=O)CN2CCC(c3nc4ccc(C)cc4[nH]3)CC2)c1,inactive: 96%
12,COc1ccccc1NC(=O)Cn1c(O)c(N=NC(=O)c2ccccc2O)c2ccccc21,inconclusive: 91%
13,Cc1cccc(NS(=O)(=O)c2cc([N+](=O)[O-])ccc2C)n1,inconclusive: 96%
14,Cc1cc(N2CCN(C)CC2)nc2ccc(NC(=S)NCc3cccs3)cc12,inconclusive: 123%
15,C=CCn1c(=O)c2ccccc2n2c(SCC(=O)NCc3cccs3)nnc12,inconclusive: 106%
16,COC(=O)/C(=C/c1ccco1)NC(=O)c1ccco1,inactive: 101%
17,CC(C)CNC(=O)C1CCCN(C(=O)NCc2ccccc2)C1 (configuration not stated),inconclusive: 95%
18,CCc1ccc(CN2C(=O)c3ccccc3C2C(=O)NCC2CCCO2)cc1 (configuration not stated),inactive: 96%
19,O=C(NCc1ccc2c(c1)OCO2)C1CCCN1S(=O)(=O)c1ccc(Cl)cc1 (configuration not stated),inactive: 99%

row,SMILES,GTP binding activity
1,Cc1c(C(=O)N2CCOCC2)oc2ccc(S(=O)(=O)N3CCCC3)cc12,inactive: 103%
2,CC1(C)CC(=O)C2=C(C1)N(c1cccc(Cl)c1)C(=O)NC2(C(F)(F)F)C(F)(F)F,inactive: 100%
3,COc1cc(=O)n(C)c2ccccc12,inconclusive: 90%
4,O=C(Cn1c2ccccc2c(=O)c2cc([N+](=O)[O-])ccc21)Nc1ccccc1Cl,inactive: 105%
5,COCCCNC(=O)CCCC(=O)NCCCOC,inconclusive: 111%
6,Cc1nc2c(N=Nc3ccccc3F)c(N)nn2c(N)c1C#N,inconclusive: 84%
7,Cc1ccc(CNC(=O)C2CN(S(C)(=O)=O)c3cc(Cl)ccc3O2)cc1 (configuration not stated),inactive: 98%
8,COc1ccc(Cl)cc1N(CC(=O)NCC(C)C)S(=O)(=O)c1ccc(C)c([N+](=O)[O-])c1,inconclusive: 104%
9,Cc1ccc(OCC(=O)N/N=C\c2c(C)[nH]n(-c3ccccc3)c2=O)c([N+](=O)[O-])c1,inconclusive: 94%
10,CC1CC(C)CN(CC(=O)N2CCCc3c2c(=O)oc2ccc(OCc4ccccc4)cc32)C1 (configuration not stated),inconclusive: 85%
11,Cc1ccc(C)n1-c1ccc(C(=O)N2CCOCC2)cc1,inconclusive: 103%
12,CC(C)CSc1n[nH]c(=S)s1,inconclusive: 93%
13,COC(=O)c1cc(NC(=O)c2ccccc2)c(=O)oc1/C=C/Nc1ccc(Oc2ccccc2)cc1,inconclusive: 302%
14,COc1cc(NC(=O)COC(=O)Cc2ccc(-c3ccccc3)cc2)cc(OC)c1,inactive: 99%
15,O=C(CN1C(=O)COc2ccccc21)N1CCc2ccccc21,inconclusive: 107%
16,CCOC(=O)C1CCCN(Cc2cccc(Cl)c2)C1 (configuration not stated),inconclusive: 102%
17,COc1ccc(-c2cnc3c(c2)CCC3(C#N)C#N)cc1,inconclusive: 96%
18,Cn1nnnc1SCC(=O)Nc1ccccc1N1CCCCC1,inconclusive: 102%
19,O=C(Cn1cnc2sc(-c3ccccc3)cc2c1=O)NCc1ccco1,inconclusive: 104%

row,SMILES,GTP binding activity
1,O=C(O)C1=C[C@@H](c2ccccc2)C[C@@H](OCc2ccc(CO)cc2)O1,inactive: 92%
2,COc1ccc(-n2c(C)cc(C(=O)CN3C(=O)C(=O)N(Cc4ccccc4)C3=O)c2C)cc1,inconclusive: 85%
3,Cc1cc(C)cc(Oc2nc(C(F)(F)F)nc3ccccc23)c1,inconclusive: 96%
4,CCOC(=O)N1CCC(NC(=O)c2ccc3nc4ccccc4c(=O)n3c2)CC1,inconclusive: 75%
5,CCOC(=O)c1cccc(-n2c(-c3ccc(OC)cc3)nc3nc4ccccc4nc32)c1,inactive: 94%
6,CCCc1cc(-c2nc(N)ncc2-c2csc(C)n2)c(O)cc1OC,inconclusive: 93%
7,CC(=O)Nc1ccc(C(=O)OCC(=O)NCc2ccc(Cl)cc2)cc1,inactive: 99%
8,C/C(=N/NC(=O)CNS(=O)(=O)c1ccc(C)cc1)c1cccc([N+](=O)[O-])c1,inactive: 91%
9,COc1cc(CNCc2cccs2)ccc1OCc1ccccc1,inconclusive: 105%
10,COc1ccc(Nc2ccccc2C(=O)O)cc1,inconclusive: 114%
11,Cc1nc(-c2cn[nH]c2)c2cc(C)oc2n1,inconclusive: 94%
12,c1ccc(-c2noc(-c3cccc4ccccc34)n2)nc1,inconclusive: 92%
13,O=C(NCC(=O)N(c1cnc2ccccc2c1)C(C(=O)NC1CCCC1)c1ccncc1)c1ccco1 (configuration not stated),inconclusive: 101%
14,Cc1nc2ccccc2c2oc(C(=O)Nc3ccc4c(c3)OCCO4)cc12,inconclusive: 86%
15,O=C(CCCN1C(=O)/C(=C/c2cccc(Br)c2)SC1=S)Nc1ccccn1,inconclusive: 92%
16,COc1cc(SC#N)ccc1N=Cc1c(C)[nH]n(-c2ccc(C)c(C)c2)c1=O,inactive: 80%
17,CCCCN(CCCC)CC(O)CN1C(=O)NC(C)(C)C1=O (configuration not stated),inconclusive: 105%
18,CC(C)Oc1ccccc1C1CC(=O)Nc2cc3c(cc21)OCCO3 (configuration not stated),inconclusive: 108%
19,COc1cc(S(=O)(=O)N2CCN(C(=O)c3ccccc3)CC2)c(OC)cc1Br,inactive: 96%
